Reference: paper PMC4336329 (PLoS ONE, 2015)
Among all 310,000 compounds or so, about 14,000 (4.5%) showed an effect of 50% or more. The effect is printed as a negative number. The list shows a part of the results.

These compounds were tested against human ether-à-go-go-related gene (hERG) potassium channel (human, UniProt Q12809) (assay: primary screen, population patch clamp on CHO cells stably expressing hERG).
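Also: peak tail current of the secondary pulse compared with the same well before compound.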

Sequence of human ether-à-go-go-related gene (hERG) potassium channel (Q12809 whole entry, looked up): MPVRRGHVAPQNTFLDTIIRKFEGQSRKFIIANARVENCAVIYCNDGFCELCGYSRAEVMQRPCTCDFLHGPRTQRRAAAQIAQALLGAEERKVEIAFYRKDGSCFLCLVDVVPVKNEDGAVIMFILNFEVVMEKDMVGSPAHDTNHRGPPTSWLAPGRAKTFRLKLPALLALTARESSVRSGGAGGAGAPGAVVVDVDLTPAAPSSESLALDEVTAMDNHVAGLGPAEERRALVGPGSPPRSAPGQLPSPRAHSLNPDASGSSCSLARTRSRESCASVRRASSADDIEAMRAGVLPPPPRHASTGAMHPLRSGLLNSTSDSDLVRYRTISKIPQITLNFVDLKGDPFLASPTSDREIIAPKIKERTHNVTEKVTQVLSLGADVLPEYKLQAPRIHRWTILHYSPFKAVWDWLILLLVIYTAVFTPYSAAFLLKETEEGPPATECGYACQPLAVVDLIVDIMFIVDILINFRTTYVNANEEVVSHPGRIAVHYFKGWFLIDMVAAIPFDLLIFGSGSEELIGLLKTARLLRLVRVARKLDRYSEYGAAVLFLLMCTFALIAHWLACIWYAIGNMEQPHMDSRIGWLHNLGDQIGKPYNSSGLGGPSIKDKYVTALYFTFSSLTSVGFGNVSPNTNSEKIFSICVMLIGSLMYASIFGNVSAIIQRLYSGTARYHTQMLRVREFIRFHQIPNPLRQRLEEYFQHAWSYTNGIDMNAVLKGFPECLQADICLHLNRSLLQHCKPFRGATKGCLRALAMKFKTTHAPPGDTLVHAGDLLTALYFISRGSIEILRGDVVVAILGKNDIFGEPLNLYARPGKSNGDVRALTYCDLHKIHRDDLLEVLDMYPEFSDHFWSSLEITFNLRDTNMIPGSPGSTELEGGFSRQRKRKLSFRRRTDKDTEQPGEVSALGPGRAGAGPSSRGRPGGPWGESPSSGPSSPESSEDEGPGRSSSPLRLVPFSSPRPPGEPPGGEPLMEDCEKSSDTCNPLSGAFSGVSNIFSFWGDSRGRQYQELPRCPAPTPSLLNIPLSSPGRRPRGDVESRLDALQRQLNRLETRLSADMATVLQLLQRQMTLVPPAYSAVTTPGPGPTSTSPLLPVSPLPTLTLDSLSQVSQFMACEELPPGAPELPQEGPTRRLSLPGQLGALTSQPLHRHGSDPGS

Compound	hERG current change (%, negative = inhibition) at 10uM [%]
COc1cccc(CN2CCN(Cc3cccn3-c3cccnc3)CC2CCO)c1 (stereo not shown)	-71.4
O=S1(=O)CCC(NC(=S)Nc2ccc3ccccc3c2)C1 (stereo not shown)	9.66
CNC(C)C#Cc1c(-c2cc(OC)c(OC)c(OC)c2)noc1C (stereo not shown)	-23
CSCC[C@@H](C(=O)NCCCCCCCCCCC(=O)N1CCN(C(=O)OC(C)(C)C)CC1)n1cc(CCO)nn1	9.05
Cc1ccccc1NC(=O)CSc1nc2n(n1)CCCCC2	22.7
CCOC(=O)c1ccc(NC(=O)CSc2nc3c(c(=O)n2C)SC(C)C3)cc1 (stereo not shown)	-14
COc1ccc(C2=NOC(C(=O)Nc3cccnc3)C2)cc1 (stereo not shown)	-4.33
O=C(O)C1=C[C@@H](c2ccc(F)cc2)C[C@@H](OCCCCO)O1	10.4
CC(=O)N/C(=C\c1ccccc1)C(=O)OCc1cc(C)ccc1C	-49.8
Cc1cc(C)nc(/N=C(\N)Nc2ccc(S(=O)(=O)Nc3nc(C)cc(C)n3)cc2)n1.Cl	38
Cc1nc2sc(C(c3ccco3)N3CC(C)OC(C)C3)c(O)n2n1 (stereo not shown)	-19.4
COc1ccc(CNC(=O)CS(=O)Cc2nc(-c3ccc(OC)c(OC)c3)oc2C)cc1 (stereo not shown)	-9.07
CC(C)(C)NC(=O)CN1C(=O)/C(=C/c2ccccc2)SC1=S	10
CCSc1ncc(CO)c(N)n1	12.1
CCC(C)c1ccc(S(=O)(=O)N2CCN3CCCC3C2)cc1 (stereo not shown)	2.84
COC(=O)c1c(NC(=O)c2ccc(Br)o2)sc(C)c1C	12.3
COc1ccc(OC)c(NC(=O)C2CCC(CNc3c(N4CCOCC4)c(=O)c3=O)CC2)c1 (stereo not shown)	18.1
CC(C)Cc1ccc(C(C)C(=O)OCC(=O)c2c[nH]c3ccccc23)cc1 (stereo not shown)	3.98
COC(=O)/C=C/c1ccc(OC(=O)OC)c(OC(=O)OC)c1	16.6
COc1ccc(C2C(C(C)=O)=C(C)Nc3ncnn32)c(OC)c1OC (stereo not shown)	12.8
CCOC(=O)C1CCCCN1Cc1ccc(OC)c(OC)c1 (stereo not shown)	8.2
CN(C)CC(C)(C)CNS(=O)(=O)CC12CCC(CC1=O)C2(C)C (stereo not shown)	5.78

Compound	hERG current change (%, negative = inhibition) at 10uM [%]
Cc1c(NCc2cc(Cl)cc(Cl)c2O)c(=O)n(-c2ccccc2)n1C	-21.1
Cc1ccc(N2C(S)=C(C#N)C(=O)NC2c2cccs2)cc1 (stereo not shown)	15.2
COC(=O)C1ON2OC(C(=O)OC)C(C(=O)OC)C2C1CC(C)=O (stereo not shown)	17.1
COc1ccc(-c2c(C)nc3c(-c4ccsc4)cnn3c2N)cc1	4.86
CCc1ccc(C2N(c3ccc(OC)cc3)C(=O)C3CCCN32)cc1 (stereo not shown)	-8.05
CCN1CCC(O)(c2ccccc2)C(C(=O)c2ccccc2)C1 (stereo not shown)	-7.58
C(#Cc1ccc2c(c1)COc1c3ccccc3nn1-2)c1ccccc1	2.08
Cc1c(Cl)cccc1NC(=O)CN1CCC(C(O)(c2ccccc2)c2ccccc2)CC1	-12.3
COC(=O)c1csc(S(=O)(=O)N2CCCCC2)c1OC	-6.23
O=C(COc1ccc(Cl)cc1)N1CCN(C2CCCC2)CC1.O=C(O)C(=O)O	-83.2
CC(=O)NCC(O)c1ccc([N+](=O)[O-])cc1 (stereo not shown)	13.6
O=C(NC1=NCCS1)c1ccccc1Br	15
C/C(=N\NC(=O)c1ccc(Cn2cc([N+](=O)[O-])cn2)o1)c1cccc(NC(=O)c2cccnc2)c1	6.77
COc1ccc(CNC(=O)c2cc(S(=O)(=O)N3CCCC3)cn2C)cc1	13.2
Cc1ccc(NC(=O)CSc2ncnc3ccccc23)cc1S(=O)(=O)N1CCCCC1	-14.1
CCc1c(C)nc(SCC(=O)N2C(C)CCCC2C)[nH]c1=O (stereo not shown)	26.7
Br.COc1ccc(-c2csc(Nc3ccc(O)cc3)n2)cc1	7.99
COC(=O)C(NC(C)=O)(Nc1sc2c(c1C(N)=O)CCCC2)C(F)(F)F (stereo not shown)	17.8
CCOC(=O)C1(CC2CC2)CCN(S(=O)(=O)/C=C/c2ccccc2)CC1	-18.4
N#Cc1c(Cn2cncn2)nc(=O)n(-c2ccccc2)c1N	15.8
CCCn1c(Nc2nc3ccccc3n2C)nc2ccccc21	1.67
CN(C)c1ccc(C(=S)N2CCCCC2)cc1Br	7.12

Compound	hERG current change (%, negative = inhibition) at 10uM [%]
CCOC(=O)C1CCN(C(=O)C2(NC(=O)Nc3ccccc3C)CCCCC2)CC1	19.9
CN(C)C(=O)C1C2NC(=S)N(c3ccccc3)C1(C)Oc1ccccc12 (stereo not shown)	-2.29
CCCOc1ccc(Cl)cc1CN1CCOCC1.Cl	-0.916
COc1ccc(CNC(=S)N/N=C(/C)c2ccccc2)cc1	-6.47
COc1ccc(OCCCC(=O)Nc2cc([N+](=O)[O-])ccc2C)cc1	-1.95
Cc1cc(C)c(S(=O)(=O)Nc2ccc[nH]c2=O)c(C)c1	0.123
Cc1ccc(CNC(=O)Cc2cccs2)cc1	8.71
O=C(Nc1c2c(nc3c1CCC3)CCCC2)c1ccccn1	-18.8
COc1cccc(C2c3[nH]c4ccccc4c3CCN2Cc2ncc[nH]2)c1 (stereo not shown)	-49.4
O=C1COc2ccc(S(=O)(=O)N3CCN(c4cccc(C(F)(F)F)c4)CC3)cc2N1	15.3
c1ccc(-c2cnc(CSc3nnc4ccccn34)o2)cc1	3.41
Cc1cc(NS(=O)(=O)c2ccc(NC(=S)NC(=O)c3ccc(Cl)cc3Cl)cc2)no1	-10.5
O=C1c2c(O)cc(O)cc2O[C@H](c2ccc(O)c(O)c2)[C@@H]1O	20.1
CC(C)C[C@H]1COCCS(=O)(=O)N1Cc1cccc(C(F)(F)F)c1	0.3
CC(C)NS(=O)(=O)c1ccc(CCC(=O)N2CCCCC2)cc1	9.5
CC(C)NC(=O)C12CC3CC(C1)CC(n1cnc(Cl)n1)(C3)C2	-4.87
CC(NC(=O)c1ccccc1)C(=O)NC1=NCCS1 (stereo not shown)	6.89
CCCN1C(=O)c2cc(C(=O)Nc3ccccc3C)ccc2C1Nc1ccccc1C (stereo not shown)	-8.84
C/C(=N\OCc1ccc(C#N)cc1)c1cc2ccccc2o1	-4.95
O=C(NC1(Cc2ccccc2)CCN(CCc2cccs2)C1=O)c1ccccc1 (stereo not shown)	-1.81
Cc1ccc(S(=O)(=O)N[C@H](C(=O)N2CCC(C(=O)N[C@@H](CCC(N)=O)C(=O)O)CC2)C(C)C)cc1	12.3
O=C(NCCc1ccccn1)c1nc(Cn2cc([N+](=O)[O-])cn2)no1	1.15

Compound	hERG current change (%, negative = inhibition) at 10uM [%]
O=C(Cn1c(=O)c(=O)n(Cc2ccccc2)c2ccc(Cl)cc21)Nc1cc(F)ccc1F	-20.4
CCOC(=O)c1ccc(S(=O)(=O)NCC(c2ccc(N(C)C)cc2)c2c[nH]c3ccccc23)cc1 (stereo not shown)	7.71
CCN(/C=N/c1sc2c(c1C#N)CC(C)(C)NC2(C)C)CC	11.8
O=C(N/N=C/c1ccccn1)c1cc(-c2ccccc2)nc2ccccc12	-20.1
O=C(CN1CCN(S(=O)(=O)c2ccc3ccccc3c2)CC1)N1CCc2ccccc2C1	-1.4
c1ccc(-n2cnnc2SCc2cn3ccsc3n2)cc1	7.19
CC(CN1CCCCCC1)C(=O)NN (stereo not shown)	22.2
Cc1nc(Nc2ccccc2)sc1C(=O)c1ccccc1	3.81
CCCn1c(C(C)Nc2nc(-c3ccc(Cl)c([N+](=O)[O-])c3)cs2)nc2cc(Cl)c(N3CCCCC3)cc21 (stereo not shown)	19.2
Cc1cc(-c2cc(C(=O)Nc3ccccc3)on2)nc(NCC2CC2)n1	14.9
COc1cccc(NC(=O)CN(C)CC(=O)Nc2ccccc2-c2ccccc2)c1	-16.5
COc1ccc(-n2nc([N+](=O)[O-])c(=NCCCN3CCCC3=O)n2O)cc1	-0.829
Cc1ccc(C)c(OCC(=O)Nc2ccc(S(=O)(=O)Nc3ccccn3)cc2)c1C	-9.39
CCCCNC(=O)COC(=O)C1CCN(S(=O)(=O)c2ccc3c(c2)OCCO3)CC1	-2.75
O=C(CSc1nnc(CNc2ccc(F)cc2)o1)OC1CCCCC1	15
CCN1C(=O)/C(=C\c2ccncc2)SC1=S	3.89
CC(C)(C)n1nc2c(c1NC(=O)c1ccccc1)CS(=O)(=O)C2	5.08
CC(C)(C)C(=O)Nc1ccc(C(=O)Nc2cc(NC(=O)c3ccc(NC(=O)C(C)(C)C)cc3)cc(C(=O)O)c2)cc1	6.62
O=C(Nc1ccccc1)N1CCCN(c2nccc(C(F)(F)F)n2)CC1	-5.36
CC(=O)NC1(c2cccc(F)c2)CCN(C(=O)Nc2ccc(C#N)cc2)CC1	-13.8
CC(=O)NC1=NC(=O)/C(=C/c2cc(C)n(-c3ccc(NC(C)=O)cc3)c2C)S1	9.27
CN(C)CCCN(C(=O)c1ccc(S(=O)(=O)N2CCCc3ccccc32)cc1)c1nc2ccc(F)cc2s1.Cl	-17.1
